Drawing on PubChem BioAssay AID926 (National Center for Advancing Translational Sciences (NCATS), 2007), this text covers activation for 1 molecule.

About 350 (0.48%) of roughly 73,000 compounds were called active. Another 17% or so got no clear call; they are omitted. A number of entries come with more than one value. This is not the full list of results. There may be further records. Results that share an entry repeat one measurement in other runs, samples, wells, individuals or studies.

This test can be described thus: qHTS Assay for Agonists of the Thyroid Stimulating Hormone Receptor.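 Note: the control signal comes from parental cells without the receptor; % of control where 0% means no effect.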 Particulars: HEK293-CNG-TSHR cells (CNG channel as cAMP sensor), membrane potential dye, cAMP; measured here: parental cells max response. From the text: NIH Chemical Genomics Center [NCGC]
NIH Molecular Libraries Screening Centers Network [MLSCN]
PI Name: Dr. Marvin Gershengorn, NIH
Thyroid Stimulating Hormone Receptor
TSH is an alpha/beta heterodimeric glycoprotein hormone secreted from the anterior pituitary gland which belongs to the glycoprotein hormone family. The actions of TSH are mediated by a seven-transmembrane receptor, which upon TSH binding couples preferentially to the G-alpha (s) protein (Gs), resulting in activation of adenylate cyclase and increase in cyclic adenosine 3', 5' monophosphate (cAMP). The TSH receptor (THSR) is mainly expressed in thyroid follicular cells and regulates their growth and function. Recombinant TSH is used to activate TSHR in patients with thyroid cancer receiving thyroid hormone suppression therapy and to screen for residual tumor after surgery, but it is expensive and must be administered intramuscularly. […]
High Throughput Screening. […] 23 nl/well compound or control was then added to the assay plates, which were incubated for additional 30 min before reading a Envision fluorescence plate reader (Perkin Elmer) in bottom-read mode for fluorescence intensity (emission at 590 nm).
Keywords: Thyroid-stimulating hormone TSH, TSHR, TSHR agonist, quantitative high throughput screening, qHTS, HTS, probe identification, CNG, cAMP, cyclic nucleotide gated ion channel PubChem
A general note: qHTS replaces the single test concentration by a dilution series.
On to `CNCC[C@H](Oc1ccc(C(F)(F)F)cc1)c1ccccc1`, for which the activation was 18.2, 5.58, 5.4, -2.39, 44.6% [separate samples].
